Test results: PubChem BioAssay AID1745845 (National Center for Advancing Translational Sciences (NCATS), 2022)
In all, about 360,000 compounds went through this assay and about 2,600 (0.72%) were called active. Inconclusive results, whose numbers are uncertain, are shown with a selection of clear calls. The call rests on the fitted dose curve; in most records, active means well fitted inhibition curve with a large enough effect; inconclusive means small, poorly fitted or top-dose-only effect; inactive means no such curve, though single readings can be large or run the other way. A potency beside an inconclusive call is a rough fit, not a confirmed value.

Test: Primary qHTS for Inhibitors of ATXN expression; further: nearly all actives have a fitted effect of over 55% in size
Conditions: HEK-293 ATXN2-luciferase reporter, luminescence, 24 h; activity change, negative = inhibition: at 57 µM (top of the series)
Method in brief: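 ATXN2-luciferase reporter cells (luciferase flanked by upstream and downstream ATXN2 gene portions) were treated 24 h at 37 °C with compounds at up to 57 uM. SteadyGlo luminescence gave expression; GF-AFC fluorescence gave viability.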
On the % scale 0 is the no-effect control and ±100 the full control effect; potency means the concentration at half of the fitted maximal effect; tags describe the fitted curve by direction and shape.

Structure (SMILES)	Potency	activity change, negative = inhibition
Cc1cc(C)cc(NC(=O)CSc2nc3nc(C)cc(C)c3c(=O)[nH]2)c1	inconclusive: 39.8 µM [inhibitor, single point]	
COc1ccccc1/C=C/C(=O)N1CCc2cc(OC)c(OC)cc2C1C (centres undefined)		inactive: -24.2%
CCN(CC)S(=O)(=O)c1ccc(N2CCOCC2)c(NC(=O)COc2ccccc2C#N)c1		inactive: -16.1%
CCn1c2ccccc2c2cc(NC(=O)COC(=O)C3CCC(=O)N3)ccc21 (centres undefined)	active: 17.8 µM	
COc1cc(C#Cc2c(-c3cncn3C)n(C)c3ccc(-c4ccc(OC)nc4)cc23)cc(OC)c1	active: 28.2 µM	
COc1ccc(S(=O)(=O)N2CCc3ccccc32)cc1[N+](=O)[O-]	inconclusive: 25.1 µM [inhibitor, partial curve, poor fit]	
CC1=C(C)/C(=N\OS(=O)(=O)c2ccc(C)cc2)C=CC1=O	inconclusive: 2.82 µM [inhibitor, full curve, poor fit]	
CCOc1ccc(C(=O)CSCCC(=O)O)cc1	inconclusive: 15.8 µM [inhibitor, partial curve, poor fit]	
CSc1nn(Cc2cccc(F)c2)c(N(C(C)=O)C(C)=O)c1S(=O)(=O)c1ccccc1	inconclusive: 25.1 µM [inhibitor, single point]	
CCCCSC1=C(C#N)C(c2ccccc2C)CC(=O)N1 (centres undefined)	inconclusive: 15.8 µM [inhibitor, partial curve, poor fit]	
CCc1ccc(NC(=O)c2ccc(F)c(S(=O)(=O)NCC3COc4ccccc4O3)c2)cc1 (centres undefined)	inconclusive: 39.8 µM [inhibitor, partial curve, poor fit]	
O=C(CSc1ncccc1C(=O)O)c1ccccc1F		inactive: 1.55%
COc1ccc(NC(=O)N2CCN(c3nc(-c4cccc(OC)c4)cs3)CC2)cc1	active: 22.4 µM	
COc1ccc(CCNC(=O)Nc2cc(F)c(F)cc2Cl)cc1OC	inconclusive: 2.67 µM [inhibitor, partial curve, poor fit]	
CCCCOc1ccc(C(=O)N2CCN(c3ccc(N4CCOCC4)nn3)CC2)cc1	inconclusive: 2.82 µM [inhibitor, partial curve, poor fit]	
O=C(Nc1cccc(O)c1)c1noc2c1CCCCC2	inconclusive: 39.8 µM [inhibitor, single point]	
CSc1ccc(S(=O)(=O)N2CCC(C(=O)N3CCc4ccccc4C3)CC2)cc1		inactive: -11.5%
COc1c(C)cc(Br)cc1C(=O)Nc1ccc(Cc2ccncc2)cc1	inconclusive: 22.4 µM [inhibitor, single point]	
Cc1ccc(C(C[N+](=O)[O-])n2nc(C)cc2C)cc1 (centres undefined)		inactive: -6.67%
